# In all, about 33,000 sequences were measured (“E-score (-0.5 to 0.5)”: median about -0.012, highest 2% from about 0.27 on). This is one part of the list.
# Target: T1, Vhr1 (UniProt P40522)
# T1 sequence: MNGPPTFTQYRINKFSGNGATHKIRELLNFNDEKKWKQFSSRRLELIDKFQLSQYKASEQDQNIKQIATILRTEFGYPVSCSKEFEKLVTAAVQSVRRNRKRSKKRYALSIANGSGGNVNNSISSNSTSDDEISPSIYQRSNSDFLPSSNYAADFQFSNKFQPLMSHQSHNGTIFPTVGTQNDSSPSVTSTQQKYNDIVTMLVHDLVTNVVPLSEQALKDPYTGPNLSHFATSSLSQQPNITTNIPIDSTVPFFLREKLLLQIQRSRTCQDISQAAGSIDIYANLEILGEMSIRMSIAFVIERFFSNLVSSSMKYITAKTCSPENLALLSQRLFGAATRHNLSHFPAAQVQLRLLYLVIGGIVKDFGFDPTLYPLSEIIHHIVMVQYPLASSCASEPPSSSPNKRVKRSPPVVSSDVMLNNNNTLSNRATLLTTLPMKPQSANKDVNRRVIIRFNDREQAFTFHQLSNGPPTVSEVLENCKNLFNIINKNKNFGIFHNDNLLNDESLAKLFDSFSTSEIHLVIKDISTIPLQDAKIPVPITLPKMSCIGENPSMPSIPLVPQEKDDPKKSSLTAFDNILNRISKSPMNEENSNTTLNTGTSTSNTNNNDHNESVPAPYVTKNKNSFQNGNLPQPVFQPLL
# Test: PBM E-score (8-mer binding enrichment) (E-score (-0.5 to 0.5)); higher = stronger / more preferred TF binding; most listed sequences are background and not binding sites
# Settings: protein concentration: 200 nM; construct: GST-full length
# Procedure, shortened: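 Masliner-normalised scans of fluorescent anti-GST signal were the basis for scoring. That signal came from GST-tagged yeast transcription factors applied at about 100-200 nM to double-stranded universal all-10-mer Agilent arrays on fresh or once-stripped slides. Each ungapped eight-base word, pooled with its reverse complement, received an E-score from the Universal PBM Analysis Suite.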
row,Sequence,PBM E-score
1,CCTGGAAC,-0.0218
2,GGGTGCAC,0.0155
3,CCAGATCA,0.0888
4,GTCTCTCA,0.0336
5,ATAATACC,0.212
6,CAAATTAG,0.0518
7,AAATGTTA,-0.121
8,GGGCTGCA,0.0511
9,GGCTGTAC,-0.0289
10,ATCGACCC,0.236
11,AAGGATGG,0.0659
12,GGTAATGA,0.023
13,ACGTTGTA,-0.133
14,GGGACACC,-0.0207
15,CAAGTGCC,-0.169
16,CTCGGGAC,-0.118
17,ACTGGGCG,-0.0166
18,ACGGTGCA,-0.162
19,TACTGTGA,0.13
20,GCTTGAAC,-0.0928
21,CATCAGAG,0.0134
22,CCGGCGGA,0.0876

row,Sequence,PBM E-score
1,ACCGATAG,0.131
2,CCGGACCG,0.147
3,TACAAAGA,0.0111
4,AGCAATCC,-0.172
5,AGGTCCAA,-0.195
6,CAGGATAA,0.11
7,AACGGATT,0.0207
8,CAATATTC,-0.0108
9,CCAGGAAC,-0.133
10,ATGCGGGG,-0.108
11,CTCATTTA,0.0469
12,AGACAGTC,0.119
13,AACTGAAG,-0.0593
14,TCAAGGCA,-0.102
15,GCAATGGC,-0.00625
16,CCTCGGAG,0.00615
17,AGCCAGAA,-0.00071
18,CGAGGATA,0.0422
19,ATCGTGGA,0.167
20,GAAGCGAC,0.0941
21,AAGCCTAT,-0.194
22,CTGCAGGC,-0.18

row,Sequence,PBM E-score
1,GCTAAACA,-0.0852
2,CTATGCCA,-0.0701
3,GGTTATAA,-0.0347
4,CAACCACG,0.202
5,AACCAAGG,0.00222
6,GCCTCAAA,-0.0409
7,AAAGGCGT,-0.19
8,CTAAGTGC,-0.0373
9,CCATAGGG,-0.0399
10,AGATGATC,0.0334
11,GTCTGCGA,-0.0703
12,AGTCGTCG,0.0519
13,TGCAAGCA,-0.0929
14,CGTCATTC,0.177
15,ACCAGCTA,-0.0791
16,ATTATCCC,0.0625
17,ATGCGCAA,0.147
18,CGTGAAAG,-0.216
19,ACTGCCCA,-0.0398
20,GTAGCTAA,-0.13
21,CAGGCAGA,-0.049
22,CTAGCGGC,-0.26

row,Sequence,PBM E-score
1,GCCGCGTA,-0.118
2,AGTAGGCC,-0.0399
3,AACTGGTC,-0.134
4,AGAGGGTG,-0.0291
5,CATGCTCA,0.17
6,AGCCTTCG,-0.103
7,CATGCCTC,-0.00371
8,CTGAGCAA,-0.0558
9,CCTTGCAC,-0.058
10,ATCCATGA,0.22
11,CAGGACCA,0.0761
12,CCGTGGCC,-0.195
13,CTGAAAAG,-0.258
14,GAACGTTC,-0.199
15,GAGCGTAC,-0.0561
16,ATTGCCAC,-0.00942
17,AGCGATTA,0.0481
18,AGCCGAAG,-0.0421
19,ATCCTAGG,-0.0544
20,CCTACAGA,-0.0624

# Reference: the supplement of paper PMC3334620
